The chains are these.
T1: UNK ZnF1-3 (human, UniProt Q9C0B0 31-174)
T1 sequence: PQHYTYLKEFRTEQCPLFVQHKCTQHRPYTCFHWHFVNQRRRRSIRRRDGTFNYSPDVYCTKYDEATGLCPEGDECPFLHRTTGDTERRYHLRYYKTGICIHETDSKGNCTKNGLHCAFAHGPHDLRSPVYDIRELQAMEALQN

B1: chr9:44212477:44212478:-_ENSMUSG00000032112_ENSMUST00000034623|perfect_dup|motif|central (ssRNA)
RNA: GGGAGUUCUACAGUCCGACGAUCUGGAUUCUUGAGGGCAAAGUCUGAGUAAAUCUCAUAAAUCUUUCGGAGAAGAGAAUCGGUUCCAGCUUGCCUAGGAUCUGCUAGAACCACAAACUUGAUCCCUGUCAGUGUCUGGUAGCACAACAGAGGAUUGAGCAUCA
B2: 110835611_110835731_665_3pUTR_ENSG00000164211_ENST00000296632|human|control|control (ssRNA)
RNA: GGGAGUUCUACAGUCCGACGAUCAAGUUGGUUAAAGUGCUUGCCAUGGCUGUAUCUACCGCAGACUGAGGAAUCAUCCCACGCAGAUCUGUCUGAAUAUAUCCUGUCAAAAGACUCUGGUUUGGGUUGUCUUUAAGUGGAACACAACAGAGGAUUGAGCAUCA
B3: 120254907_120255027_511_CDS_ENSMUSG00000062822_ENSMUST00000026519|mouse|control|control (ssRNA)
RNA: GGGAGUUCUACAGUCCGACGAUCUUCAAAGAGAAAUUCAGAGCCGCAAGGAGAGAGCUGCAGCGUGGACCCACAAGCGUAGUGCACUUGGACGGAAUCAUCCUCAUAGAGCACCAUUCGCACCUCAGCUGCCAUUCCCAUGCCCAACAGAGGAUUGAGCAUCA
B4: chr12:39763582:39763583:-_ENSG00000139116_ENST00000544797|hu_mus|hu_hu_hu_mus_False|28_28 (ssRNA)
RNA: GGGAGUUCUACAGUCCGACGAUCCUCUAGGAACUGGGCAUUCACUUUGAAUUCAGGAGGGGGCAGCCCGUUUUUAAUCGCUGAGGUCUUUUUCUCAUCAAUACUCUUAAAAAGGUGUCUAACAGCACGAGAGAUGAUGCCCUGCAACAGAGGAUUGAGCAUCA
B5: chr14:61435135:61435136:+_ENSG00000020426_ENST00000539616|hu_hu|motif|central (ssRNA)
RNA: GGGAGUUCUACAGUCCGACGAUCUAAAUACUUUAACACAGCUGCUAGUGGAAGGACUGUGUUGUGCAGCUGCACAUAGCGGUAAUUUUAUAAGUCUGCUUUACUUUUGCUAGCUCCCUGGUUCAGCUCCAAGGUCCAAAUCUUCAACAGAGGAUUGAGCAUCA
B6: chr2:9570881:9570882:+_ENSG00000119203_ENST00000238112|hu_mus|hu_hu_hu_mus_False|8_98 (ssRNA)
RNA: GGGAGUUCUACAGUCCGACGAUCACUUGUCUUCUGAAGAAACCAGGGCAGGGCUCCACAGUGAUCCAAAUGGAAAUGACUGAUCAACAGAAGGUCGAUCUCAGCUGGGUCGAUAAGGUCAAUGUAAGGAAGAGCAUCCAUUCCCAACAGAGGAUUGAGCAUCA
B7: chr3:145257603:145257604:+_ENSMUSG00000074182_ENSMUST00000098534|mus_mus|FALSE|FALSE (ssRNA)
RNA: GGGAGUUCUACAGUCCGACGAUCAUCGAUGUAAGGCUUUAGAAUUUCAUUAAUAGUUUUAUCAUCUGGUACUCUUUUUUCUAUGUACUCUGCUUGACUCUGAGGAAACUGGAGCUUGACAUGCCAACAAAACUGCUGCUUCCUCAACAGAGGAUUGAGCAUCA
B8: chr11:4127340:4127341:+_ENSG00000167325_ENST00000300738|hu_mus|FALSE|FALSE (ssRNA)
RNA: GGGAGUUCUACAGUCCGACGAUCGGCAUAGUCAGGGUGCUUCGUGGUCAAGGUCGCGGCUGUCUCAGCAGCCAGGGUGUCCAGUUCCACUGUGGUGACCCCACUAUAUAGGCCUUGGAUUACUUUCAUGGUGAUCUGAGCAGGCAACAGAGGAUUGAGCAUCA
B9: chrX:53230792:53230793:-_ENSG00000126012_ENST00000404049|hu_hu|FALSE|FALSE (ssRNA)
RNA: GGGAGUUCUACAGUCCGACGAUCCAGCAGGGCCUUUCGUAGACGCCGCUCUUCUUGCACCAUGAUGAACAUCUCCUUAUGCACAGCUGCCGCCAGGUUCAGGUCUAGCUUCUCUGGGCAGGCAGCCAUCUUGCAGAUAAGCUCCAACAGAGGAUUGAGCAUCA
B10: chr19:34925787:34925788:+_ENSG00000126261_ENST00000246548|perfect_dup|FALSE|FALSE (ssRNA)
RNA: GGGAGUUCUACAGUCCGACGAUCGAGAUACCCAGCAGUCCCGCUCUCAAUGAGAGGCACAUCAGCGGCCAGACACAUCCUAUUCACGUGGUUUCGUGCAGCUCUGUUAUCUAAUGCAUUCAUGACCAAUAUAAACUGUCGAAACAACAGAGGAUUGAGCAUCA
B11: chr13:36049296:36049297:-_ENSG00000180660_ENST00000379919|hu_mus|FALSE|FALSE (ssRNA)
RNA: GGGAGUUCUACAGUCCGACGAUCCCACGUUUGUUUAGCAGCGUUUUCCAAGGCCGAGUGGGGUUUGCCUUGAAACAGAUCUAAGUUCGGUAAGAAGUAAUGGGGACACCGCCGGCACUGCAGGCAUGAGAUGAGCUGCAGAAGCAACAGAGGAUUGAGCAUCA
B12: chr2:181922443:181922444:+_ENSG00000170035_ENST00000410062|hu_hu|FALSE|FALSE (ssRNA)
RNA: GGGAGUUCUACAGUCCGACGAUCCACACCACCUUCAUAUACAGAACCCGGUGGACCAAGUAUAGUUGAUCUCCAUUCAUAAAUGUUAUCUCCUUUAGGCCCAGCACUGCAAUUAGGAGGAGGAUCAAGGGUUAUUUCAGCUAGCAACAGAGGAUUGAGCAUCA
B13: chr20:33096620:33096621:+_ENSG00000078747_ENST00000374864|hu_hu|FALSE|FALSE (ssRNA)
RNA: GGGAGUUCUACAGUCCGACGAUCGUCUUAAACUCCUUAACAAUAAUUAAAUAUAACUGAAGUUGUUGGAUUAUGAUAAAACUAUAAAGCAUCAAUUAUAUAGCGGAACAUAUAAAAAUCACCAGAGACAUCUUUAGAUGAAUUCAACAGAGGAUUGAGCAUCA
B14: chr3:10015032:10015033:+_ENSMUSG00000027533_ENSMUST00000029046|mus_mus|mus_mus_mus_hu_True|48_48 (ssRNA)
RNA: GGGAGUUCUACAGUCCGACGAUCGUUUUUACCAUCACAAGUGAUGAUACAAUCUGGCUUGGCCAUUGCGCCCAUUUUUCGCAAAGCCAGUCCUACUCCUAGCUCCUUCAUGUAUUCAUCAAAGCCUUUGCUGUCCACCAGGCGCAACAGAGGAUUGAGCAUCA
B15: chr5:17772112:17772113:-_ENSMUSG00000057614_ENSMUST00000074694|mus_mus|motif|central (ssRNA)
RNA: GGGAGUUCUACAGUCCGACGAUCAAGUCUAAGAUCCUGUGUCCUGAAAAAAUCUGGAGAUUUGGUUUCUUAAAUAAAUCGGAACGGGAGUCAGAACAUCAUGCACUCUGUAAAUAAAUUCUAAUGCACUCAAUGCUUAAAUAACAACAGAGGAUUGAGCAUCA
B16: 65476360_65476480_3758_3pUTR_ENSG00000153914_ENST00000334121|human|control|control (ssRNA)
RNA: GGGAGUUCUACAGUCCGACGAUCUCUUCCAAAAUUUUAAUGUACACAGUGACAAAAAGGAAAAACAAACAAAAAAAACAGUAAUUCUGAACACAUGAAGAGUGAUUAAGCAGCUUCAUAAUCAAAUCAGGCUUCAUUACUUGCCAACAGAGGAUUGAGCAUCA
B17: chr17:17165348:17165349:-_ENSG00000141030_ENST00000268717|hu_mus|FALSE|FALSE (ssRNA)
RNA: GGGAGUUCUACAGUCCGACGAUCUAUUUGAGAGGUGUAUUUAGGCAGCUGUUGUACUUUGCCAAGUAAUAUCAAAGACACUAGAAUAUACUUUUUAUAUGAUUCCAACAUGAUAUGGCUGACGGCCAUGGCAGGAGUAGUUAUCAACAGAGGAUUGAGCAUCA
B18: chr7:86439405:86439406:+_ENSMUSG00000039202_ENSMUST00000037315|mus_mus|FALSE|FALSE (ssRNA)
RNA: GGGAGUUCUACAGUCCGACGAUCUUCCUUGAAGGGGUGUCCAGGUGGGCCAAUCAGAUCUGAUCUUAUAUUCAAAUUAACCUAAAAGCUUCUCUCAUUGACUCCAGCAGUCCAACCCGCCCGGAGUCCGGUUCCCGCAGCUCCCAACAGAGGAUUGAGCAUCA
B19: 149508160_149508280_6036_3pUTR_ENSMUSG00000003452_ENSMUST00000086829|mouse|control|control (ssRNA)
RNA: GGGAGUUCUACAGUCCGACGAUCUUCAUGCUCCUAAGCACUUAGGCCAAAAGCAAUUUAUUGCUUCUUUUUAUUUUACUAUUAUGCUUUAAUGAAAAUCCUUAGUGAAAAAGCAUUUCUGCAUACUAAUUCAUCUAUUCAGCUCAACAGAGGAUUGAGCAUCA
B20: 107906761_107906881_4198_3pUTR_ENSMUSG00000034636_ENSMUST00000043616|mouse|control|control (ssRNA)
RNA: GGGAGUUCUACAGUCCGACGAUCGAAUCUGAGCAACCAUCUUGGGUAAAAAUGUAUCGUAUAGCUCUUAAAAUUCCUUGAACCAAUGAAGUAAGAAAUAAACCAUAGUUUUAUAUGGCUUUUUGAUAAUUCUAUGUGUCUGUUCAACAGAGGAUUGAGCAUCA
B21: 97770756_97780716_632_CDS_ENSG00000164715_ENST00000297293|human|control|control (ssRNA)
RNA: GGGAGUUCUACAGUCCGACGAUCGGCAACUUGAGACUUCAAUCCCUCUACAGAAGGCUGGAAUUGCGAGGGAGCUGGGAGUGAAAUAUUUGGUACUGAAAGUGUGAAGACCUCUGCUGGGGACUGAACAGAGGGAGUGUCUUCCAACAGAGGAUUGAGCAUCA
B22: chr13:95058138:95058139:+_ENSG00000183098_ENST00000377047|hu_mus|FALSE|FALSE (ssRNA)
RNA: GGGAGUUCUACAGUCCGACGAUCAUUAAACCUUUAACAUUAAAUCAGUCUACAAAACCAUACAACGGGCAGUGACAAUGACUAGGAAGGGCACGUUAAAAACAUUUUGUCCAUGUCUGUGUAAGAUGACCAACGAUGUGGCUUCAACAGAGGAUUGAGCAUCA

Some of the results follow.

The assay deals with T1, UNK ZnF1-3. In words: nsRBNS (natural sequence RNA bind-n-seq); RBNS binding buffer (assumed for nsRBNS): 25 mM Tris pH 7.5, 150 mM KCl, 3 mM MgCl2, 0.01% Triton X-100, 500 ug/ml BSA, 20 U/ml SUPERase-In, 4 C; UNK is unkempt and MSI1 is Musashi-1; names of the RNAs are library labels; protein concentration not given here; high values mean tight binding.
Consider B1, for which the binding signal was determined as 0.621 enrichment R.
In the case of B2, the binding signal is 0.949 enrichment R.
For B3 the value was 1.52 enrichment R; for B4, 1.74 enrichment R.
For B5 the value was 0.672 enrichment R; for B6, 2.2 enrichment R; for B7, 0.958 enrichment R.
As for B8, the figure is 0.97 enrichment R.
For B9, the binding signal was 0.643 enrichment R.
As for B10, the figure is 0.474 enrichment R; as for B11, 1.23 enrichment R.
For B12 the value was 1.46 enrichment R; for B13, 1.42 enrichment R; for B14, 0.61 enrichment R.
Molecule B15 displayed a binding signal of 1.37 enrichment R.
In the case of B16, the binding signal amounted to 1.94 enrichment R.
On to B17, for which the binding signal stood at 0.98 enrichment R.
For B18 the value was 0.922 enrichment R.
As for B19, the figure is 0.656 enrichment R; as for B20, 0.648 enrichment R; as for B21, 1.96 enrichment R.
For B22 the value was 1.72 enrichment R.

Source of the values: publication PMC12136788.
